From PubChem BioAssay AID624296 (National Center for Advancing Translational Sciences (NCATS), 2012)
Among all 350,000 compounds or so, about 9,900 (2.8%) were called active. Inconclusive results, whose numbers are uncertain, are shown with a selection of clear calls. The call rests on the fitted dose curve; in most records, active means well fitted activation curve with a large enough effect; inconclusive means small, poorly fitted or top-dose-only effect; inactive means no such curve, though single readings can be large or run the other way. No potency is given beside an inconclusive call; the fits are too rough.

assay: A quantitative high throughput screen for small molecules that induce DNA re-replication in MCF 10a normal breast cells.; further: nearly all actives have a fitted effect of over 50% in size; conditions: MCF 10A DNA re-replication, Hoechst nuclear intensity, 48 h; series mostly up to 46.1 µM
Potency means the concentration at half of the fitted maximal effect; tags describe the fitted curve by direction and shape.

| Compound | Potency |
| --- | --- |
| Nc1cccc(-c2cc(-c3ccccc3)nc(-c3cccc(N)c3)n2)c1 | inconclusive [activator, partial curve, poor fit] |
| O=C(N/N=C\c1ccc([N+](=O)[O-])o1)C1COc2ccccc2O1 (stereo not drawn) | inconclusive [activator, partial curve] |
| C#CCSc1n[nH]c(-c2ccco2)n1 | inactive |
| COc1ccc(/C(N)=N/OC(=O)N2CCOCC2)cc1 | active: 20.6 µM |
| O=C(Cn1cnc2ccccc2c1=O)N1CCN(S(=O)(=O)c2ccc(F)cc2)CC1 | inactive |
| Cc1ccc(S(=O)(=O)N2CCCCC2CCNC(=O)C(=O)NCCc2ccco2)cc1 (stereo not drawn) | active: 3.66 µM |
| CCN1C(=O)c2ccccc2S(=O)c2ccc(C(=O)N3CCN(C(=O)c4ccco4)CC3)cc21 (stereo not drawn) | inactive |
| Cc1ccsc1C(=O)Nc1ccccc1N1CCCC1 | inconclusive [activator, partial curve, poor fit] |
| CS(=O)(=O)c1ccc2nc(NC(=O)CN3CCC(Cc4ccccc4)CC3)sc2c1 | inconclusive [activator, partial curve, poor fit] |
| Clc1ccc(C(Cn2ccnc2)OCc2ccsc2Cl)c(Cl)c1 (stereo not drawn) | inconclusive [activator, single point] |
| O=C(Nc1ccc(N2CCCCCC2)cc1)c1cccc(S(=O)(=O)N2CCOCC2)c1 | inconclusive [activator, partial curve] |
| O=c1[nH]c2cccc(Cl)c2n(CCNc2ncc(C(F)(F)F)cc2Cl)c1=O | inconclusive [activator, single point] |
| O=C(c1sc2cc(F)ccc2c1Cl)N1CCN(c2cccc(Cl)c2)CC1 | inconclusive [activator, partial curve, poor fit] |
| CCOC(=O)c1c(NC(=O)C2C3C=CC(C3)C2(C)C(=O)O)sc2c1CCCC2 (stereo not drawn) | inconclusive [activator, partial curve, poor fit] |
| O=C(N/N=C/c1ccc(N2CCCCC2)o1)C(O)(c1ccccc1)c1ccccc1 | inconclusive [activator, full curve, poor fit] |
| Cc1cc(C)c2[nH]c(C(=O)Nc3ccc4c(c3)OCO4)cc2c1 | inconclusive [activator, full curve, poor fit] |
| Nc1cc(C(=O)OCC(=O)NNC(=O)c2cccs2)ccc1Cl | inconclusive [activator, single point] |
| Cc1nn(-c2ccccc2)c(C)c1/C=N/NC(=O)CSc1nc2ccccc2c(=O)n1-c1ccc(Br)cc1 | active: 12.6 µM |
